Assay results published in PubChem BioAssay AID1030 (National Center for Advancing Translational Sciences (NCATS), 2008).
Among all 220,000 compounds or so, about 16,000 (7.3%) were called active. This list was built around the results that the source calls inconclusive (neither active nor inactive); the mix of calls is not that of the screen. Calls come from the whole dose curve; as a rule, active = well fitted inhibition curve with a large enough effect (not every such curve was filed as active); inconclusive = small, poorly fitted or top-dose-only effect, or another doubt; inactive = no such curve, though single readings can be large or run the other way. No potency is given beside an inconclusive call; the fits are too rough.

target: Aldehyde dehydrogenase 1A1 (Homo sapiens) (UniProt P00352); assay: qHTS Assay for Inhibitors of Aldehyde Dehydrogenase 1 (ALDH1A1); settings: Purified ALDH1A1, NADH fluorescence, propionaldehyde substrate; series mostly up to 75.3 µM;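 for activity, negative = inhibition: plate controls were no enzyme wells and a reference inhibitor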
Potency is the fitted concentration of half-maximal effect; tags give direction and shape of the fitted curve.

Sequence of UniProt P00352 (P00352 whole entry, looked up): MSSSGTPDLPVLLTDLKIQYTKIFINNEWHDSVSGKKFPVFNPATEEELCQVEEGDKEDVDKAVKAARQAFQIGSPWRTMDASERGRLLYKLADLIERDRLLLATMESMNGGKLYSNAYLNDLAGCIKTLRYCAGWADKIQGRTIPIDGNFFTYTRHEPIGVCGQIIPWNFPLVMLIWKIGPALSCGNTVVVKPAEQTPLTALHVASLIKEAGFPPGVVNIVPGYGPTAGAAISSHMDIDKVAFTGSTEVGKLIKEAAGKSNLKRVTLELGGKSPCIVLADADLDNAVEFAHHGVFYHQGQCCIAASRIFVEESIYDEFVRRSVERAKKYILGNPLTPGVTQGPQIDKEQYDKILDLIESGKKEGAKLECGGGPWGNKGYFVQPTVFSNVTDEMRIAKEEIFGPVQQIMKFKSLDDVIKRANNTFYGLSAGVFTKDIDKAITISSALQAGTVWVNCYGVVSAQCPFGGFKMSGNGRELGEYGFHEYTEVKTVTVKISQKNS

With `CCOC(=O)CSc1nc(N)c(C(=O)Nc2ccc(N(C)C)cc2)s1` as the compound, how does the Potency read?
Its Potency is inconclusive [inhibitor, single point].

With `Cc1ccc(C)c(OCc2nnc(N)s2)c1` as the compound, how does the Potency read?
Its Potency is inconclusive [inhibitor, single point].

With `O=C(NNc1nc2ccc(F)cc2s1)c1cccc(F)c1` as the compound, how does the Potency read?
Its Potency is “inactive”.

How did the activity, negative = inhibition turn out when `O=C(O)C[C@@H](C(=O)O)C1c2ccccc2-c2ccccc21` was run?
The activity, negative = inhibition was inactive: 9.13% [at 13.5 µM].

`O=C(Oc1coc(CSc2nnc(NC(=O)c3cccs3)s2)cc1=O)c1ccccc1` was tested. Which Potency did it give?
Its Potency is inconclusive [inhibitor, single point].

For `O=c1c(Cc2ccc(F)cc2)c(O)ccn1C1CC1`, which Potency is on record?
The Potency was “inactive”.

`CCN(CC)c1ccc(/C=N/Nc2ccccc2)c(O)c1` was tested. Which Potency did it give?
Its Potency is active: 3.55 µM.

With `O=C(Cc1ccccc1)NC(=S)Nc1ccc(N2CCCCC2)cc1` as the compound, how does the Potency read?
The Potency was inconclusive [inhibitor, single point].

`C/C(=N\NC(=O)c1ccccn1)c1ccc(C(=O)O)s1` was tested. Which Potency did it give?
The Potency was active: 10 µM.

`O=C1C(Cl)=C(NCC2CCCO2)C(=O)N1c1cccc(Cl)c1Cl` (stereo not given) was tested. Which Potency did it give?
Its Potency is inconclusive [inhibitor, single point].

For `COC(=O)C1=C(CSc2nc3ccccc3s2)NC(=O)NC1c1ccc(F)cc1` (stereo not given), which Potency is on record?
The Potency was inconclusive [inhibitor, single point].

For `OCCN1CCN(CC(O)C(F)(F)F)CC1` (stereo not given), which Potency is on record?
Its Potency is “inactive”.

For `COc1ccc(CCNc2ncnc3sccc23)cc1OC`, which Potency is on record?
The Potency was “inactive”.

With `Cc1ccc(-n2c(SCC(=O)NCc3ccco3)nc3c([nH]c4ccccc43)c2=O)cc1` as the compound, how does the Potency read?
Its Potency is inconclusive [inhibitor, full curve].

For `CN(C(=S)NC(=O)/C=C/c1ccc(F)cc1)C1CCCCC1`, which Potency is on record?
Its Potency is inconclusive [inhibitor, single point].

`Cc1ccc(C(=O)CSc2nc(C)cc(C)c2C(N)=O)cc1` was tested. Which Potency did it give?
The Potency was “inactive”.

`Cc1ccc(CNC(=O)CCCC(=O)Nc2cc(C)on2)cc1` was tested. Which Potency did it give?
Its Potency is “inactive”.

`Cc1cc(SCC(=O)NC(=O)NCc2ccco2)nc2c(C)cccc12` was tested. Which Potency did it give?
The Potency was active: 22.4 µM.

How did the Potency turn out when `Cc1cc2cc(CN(C(=O)C3CC3)C3CCCC3)c3nnnn3c2cc1C` was run?
Its Potency is active: 0.199 µM.

With `Cc1cccc(C(=O)N2CCC(=O)N([C@H](COCc3ccc(Cl)cc3)Cc3ccccc3)CC2)c1` as the compound, how does the Potency read?
Its Potency is inconclusive [inhibitor, single point].

For `O=C(CSCc1cccc(Br)c1)NC1CC1`, which Potency is on record?
The Potency was “inactive”.

With `CSCCC(NS(=O)(=O)c1ccc(Cl)cc1)C(=O)OCc1cccc(Cl)c1` (stereo not given) as the compound, how does the Potency read?
Its Potency is “inactive”.

`O=C(/C=C/c1ccco1)NCc1ccc2c(c1)OCO2` was tested. Which Potency did it give?
The Potency was active: 20 µM.

With `COc1ccc(-c2nn3c(-c4ccccc4)nnc3s2)cc1` as the compound, how does the Potency read?
Its Potency is inconclusive [inhibitor, partial curve].

How did the Potency turn out when `CCO/C=C1/C(=O)N(c2ccccc2OC)C(=O)c2ccccc21` was run?
Its Potency is inconclusive [inhibitor, partial curve].

With `COc1ccccc1CN1CCCC2(CCN(C(=O)c3ccncc3)CC2)C1` as the compound, how does the Potency read?
Its Potency is inconclusive [inhibitor, single point].

Which Potency does the source give for `CC(Cl)C(=O)Nc1ncc(C(F)(F)F)cc1Cl` (stereo not given) here?
The Potency was active: 7.08 µM.

Which Potency does the source give for `C=CCOc1c(Br)cc(CNc2ccc(NC(=O)C(C)C)c(OC)c2)cc1OC` here?
The Potency was inconclusive [inhibitor, single point].

`CCCCC1=NN2CCS(=O)(=O)N=C2S1` was tested. Which Potency did it give?
Its Potency is “inactive”.

How did the Potency turn out when `c1ccc(-c2ccc(OCCOCCn3cncn3)cc2)cc1` was run?
The Potency was inconclusive [inhibitor, single point].

Which Potency does the source give for `CC(=O)Oc1ccc2c(C)cc(=O)oc2c1C(=O)c1ccccc1` here?
The Potency was inconclusive [inhibitor, single point].

`N#CC1=C(N)NC(SCc2ccc(F)cc2)=C(C#N)C12CCCCC2` was tested. Which Potency did it give?
Its Potency is inconclusive [inhibitor, partial curve].

For `CCN(CC)S(=O)(=O)c1ccc(Cl)c(C(=O)Oc2cccc(-c3cnc4ccccc4n3)c2)c1`, which Potency is on record?
The Potency was “inactive”.

For `COC(=O)c1ccn(Cc2ccccc2Cl)n1`, which Potency is on record?
The Potency was “inactive”.

`Cc1ccc2occ(C(c3nnnn3C3CCCC3)N3CCN(C(=O)c4ccco4)CC3)c(=O)c2c1` (stereo not given) was tested. Which Potency did it give?
The Potency was active: 1.12 µM.

Which Potency does the source give for `C/C(=N\Nc1cc(N2CCOCC2)nc(C)n1)c1cccc([N+](=O)[O-])c1` here?
The Potency was inconclusive [inhibitor, partial curve].

With `CC(C)(O)CCC(C)(C)O` as the compound, how does the Potency read?
Its Potency is inconclusive [inhibitor, single point].

Which Potency does the source give for `COC(=O)/C=C/S(=O)(=O)c1ccc(NC(C)=O)cc1` here?
The Potency was active: 0.316 µM.

Which Potency does the source give for `CC(C)CC(NC(=O)c1ccc(C#CC(C)(C)O)s1)C(=O)O` (stereo not given) here?
The Potency was inconclusive [inhibitor, single point].

Which Potency does the source give for `COc1ccccc1NC(=O)c1cc2ccccc2o/c1=N\O` here?
Its Potency is inconclusive [inhibitor, single point].

Which Potency does the source give for `CCCCC(=O)Nc1sc2c(c1C(=O)OCC)CCC(C=O)=C2Cl` here?
The Potency was active: 10 µM.

For `O=C(CSc1nnc(-c2ccco2)o1)c1ccc[nH]1`, which Potency is on record?
The Potency was inconclusive [inhibitor, single point].

For `CCc1nnc(NC(=O)c2ccncc2)s1`, which Potency is on record?
The Potency was “inactive”.

With `CN(C)S(=O)(=O)NCCNC(=O)c1cc(OCC(F)(F)F)ccc1OCC(F)(F)F` as the compound, how does the Potency read?
Its Potency is “inactive”.

`CN1C(=O)/C(=C/c2ccccc2OCc2ccc(F)cc2)N(C)C1=S` was tested. Which Potency did it give?
Its Potency is “inactive”.

`CNC(=S)NNC(=O)COc1cccc(C)c1C` was tested. Which Potency did it give?
The Potency was inconclusive [inhibitor, single point].

With `Cc1ccc(C(c2nnnn2Cc2ccccc2)N2CCN(Cc3ccccc3)CC2)cc1` (stereo not given) as the compound, how does the Potency read?
The Potency was active: 22.4 µM.

`Cc1ccc(CN2CCc3c(OCC(=O)Nc4cccc(C)c4C)cccc3C2=O)cc1` was tested. Which Potency did it give?
The Potency was active: 25.1 µM.

With `Oc1c(C(c2ccco2)N2CCN(C(c3ccccc3)c3ccccc3)CC2)sc2ncnn12` (stereo not given) as the compound, how does the Potency read?
The Potency was “inactive”.

For `COc1ccc(S(=O)(=O)NC(C)C(=O)Nc2cccc(C(C)=O)c2)cc1` (stereo not given), which Potency is on record?
Its Potency is “inactive”.

Which Potency does the source give for `COc1ccc(N=N/C(=C\O)C(=O)c2cccs2)cc1` here?
Its Potency is active: 14.1 µM.

How did the Potency turn out when `Cc1ccsc1-c1n[nH]c(=S)n1C1CCCCC1` was run?
Its Potency is “inactive”.

How did the Potency turn out when `CC1=NN(c2ccc([N+](=O)[O-])cc2)C(=O)C1[N+](=O)[O-]` (stereo not given) was run?
Its Potency is inconclusive [inhibitor, partial curve].

How did the Potency turn out when `COc1cccc2sc(N(C)c3ccccc3)nc12` was run?
The Potency was “inactive”.

For `O=C(CC(NS(=O)(=O)c1ccc(Cl)cc1)c1ccco1)NC1CCCC1` (stereo not given), which Potency is on record?
The Potency was “inactive”.

`O=C(NC1CCCCCC1)c1ccc2c(=O)n3c(nc2c1)CCCCC3` was tested. Which Potency did it give?
The Potency was active: 10 µM.

With `Cc1cc(/C=N/NC(=O)C(O)(c2ccccc2)c2ccccc2)c(C)n1-c1cccc(C(=O)O)c1` as the compound, how does the Potency read?
Its Potency is inconclusive [inhibitor, single point].

For `CC(C)On1c(SC(C)C)nc2ccccc2c1=O`, which Potency is on record?
The Potency was inconclusive [inhibitor, single point].

With `CCCCSc1ccc(NC(=O)c2cccnc2)cc1` as the compound, how does the Potency read?
The Potency was “inactive”.

How did the Potency turn out when `CCOc1ccc(N2C(=O)CC(Sc3ccccc3C(=O)O)C2=O)c([N+](=O)[O-])c1` (stereo not given) was run?
Its Potency is active: 1 µM.

For `O=C(NCC1CCCO1)c1ccc(COc2ccccc2Br)cc1` (stereo not given), which Potency is on record?
The Potency was “inactive”.

Which Potency does the source give for `CCCC(=O)NC(=S)Nc1ccc(S(=O)(=O)Nc2ccc(OCC)cc2)cc1` here?
Its Potency is inconclusive [inhibitor, single point].

With `COc1ccc(CNC(=O)c2c(C)nc3ccccn23)cc1` as the compound, how does the Potency read?
The Potency was “inactive”.

Which Potency does the source give for `COc1ccc(N2C(=O)CC(Nc3ccc(C)cc3)C2=O)cc1` (stereo not given) here?
The Potency was “inactive”.

For `NC(=O)CSc1nc2ccccc2n1Cc1ccccc1F`, which Potency is on record?
The Potency was inconclusive [inhibitor, single point].

How did the Potency turn out when `Cc1c(CC(=O)O)c(=O)oc2c(C)c(OCc3nn[nH]n3)ccc12` was run?
Its Potency is inconclusive [inhibitor, partial curve].

How did the Potency turn out when `COCc1nnc(NC(=O)c2sc3ccccc3c2Cl)s1` was run?
The Potency was inconclusive [inhibitor, single point].

How did the Potency turn out when `Cc1cc(=O)[nH]c(N/N=C/c2ccco2)n1` was run?
Its Potency is inconclusive [inhibitor, single point].

Which Potency does the source give for `CCn1c(CSCc2c(Cl)cccc2Cl)n[nH]c1=S` here?
Its Potency is inconclusive [inhibitor, full curve].

For `O=C(NCc1cccs1)C(=O)NCC(c1ccco1)N1CCN(c2ccc(F)cc2)CC1` (stereo not given), which Potency is on record?
Its Potency is inconclusive [inhibitor, partial curve].

For `COc1ccc2c(c1)[nH]c1c(=O)n(CCC3=CCCCC3)cnc12`, which Potency is on record?
The Potency was inconclusive [inhibitor, full curve].

`Cc1cc(C(=O)Nc2sc3c(c2C#N)CCC(C)C3)no1` (stereo not given) was tested. Which Potency did it give?
Its Potency is inconclusive [inhibitor, single point].

How did the Potency turn out when `N#CC(=C1Nc2ccccc2N1)S(=O)(=O)c1ccccc1` was run?
Its Potency is “inactive”.

Which Potency does the source give for `CCc1ccc(C2CC(=O)N3CN(c4ccccc4)CSC3=C2C#N)cc1` (stereo not given) here?
Its Potency is active: 10 µM.

Which Potency does the source give for `c1cc(N2CCCC2)ccc1C(c1nnnn1C1CCCCC1)N1CCOCC1` (stereo not given) here?
The Potency was active: 25.1 µM.

For `COc1ccc(N(C(=O)c2cccnc2)S(=O)(=O)c2ccccc2)cc1`, which Potency is on record?
The Potency was inconclusive [inhibitor, partial curve].

With `COc1ccc(CCNc2oc(COc3ccccc3F)nc2C#N)cc1` as the compound, how does the Potency read?
The Potency was inconclusive [inhibitor, single point].

Which Potency does the source give for `O=c1nc2s/c(=C\c3ccc(-c4ccccc4[N+](=O)[O-])o3)c(=O)n2nc1-c1ccccc1` here?
The Potency was inconclusive [inhibitor, full curve].

Which Potency does the source give for `COC(=O)c1sc2nc(C)nc(SCC(=O)C(C)(C)C)c2c1C` here?
The Potency was inconclusive [inhibitor, single point].

`Cn1c(=O)c2nc(Cl)c(-c3ccccc3)nc2n(C)c1=O` was tested. Which Potency did it give?
The Potency was inconclusive [inhibitor, single point].
